Experimental findings from paper PMC4336329 (PLoS ONE, 2015) are described below.

The structures appear in SMILES notation. Hit rate of the full screen: of about 310,000 compounds, about 2,200 (0.71%) showed an effect of 50% or more. The effect is printed as a negative number. This is one part of the list.

Chain of human ether-à-go-go-related gene (hERG) potassium channel (Q12809 whole entry, looked up): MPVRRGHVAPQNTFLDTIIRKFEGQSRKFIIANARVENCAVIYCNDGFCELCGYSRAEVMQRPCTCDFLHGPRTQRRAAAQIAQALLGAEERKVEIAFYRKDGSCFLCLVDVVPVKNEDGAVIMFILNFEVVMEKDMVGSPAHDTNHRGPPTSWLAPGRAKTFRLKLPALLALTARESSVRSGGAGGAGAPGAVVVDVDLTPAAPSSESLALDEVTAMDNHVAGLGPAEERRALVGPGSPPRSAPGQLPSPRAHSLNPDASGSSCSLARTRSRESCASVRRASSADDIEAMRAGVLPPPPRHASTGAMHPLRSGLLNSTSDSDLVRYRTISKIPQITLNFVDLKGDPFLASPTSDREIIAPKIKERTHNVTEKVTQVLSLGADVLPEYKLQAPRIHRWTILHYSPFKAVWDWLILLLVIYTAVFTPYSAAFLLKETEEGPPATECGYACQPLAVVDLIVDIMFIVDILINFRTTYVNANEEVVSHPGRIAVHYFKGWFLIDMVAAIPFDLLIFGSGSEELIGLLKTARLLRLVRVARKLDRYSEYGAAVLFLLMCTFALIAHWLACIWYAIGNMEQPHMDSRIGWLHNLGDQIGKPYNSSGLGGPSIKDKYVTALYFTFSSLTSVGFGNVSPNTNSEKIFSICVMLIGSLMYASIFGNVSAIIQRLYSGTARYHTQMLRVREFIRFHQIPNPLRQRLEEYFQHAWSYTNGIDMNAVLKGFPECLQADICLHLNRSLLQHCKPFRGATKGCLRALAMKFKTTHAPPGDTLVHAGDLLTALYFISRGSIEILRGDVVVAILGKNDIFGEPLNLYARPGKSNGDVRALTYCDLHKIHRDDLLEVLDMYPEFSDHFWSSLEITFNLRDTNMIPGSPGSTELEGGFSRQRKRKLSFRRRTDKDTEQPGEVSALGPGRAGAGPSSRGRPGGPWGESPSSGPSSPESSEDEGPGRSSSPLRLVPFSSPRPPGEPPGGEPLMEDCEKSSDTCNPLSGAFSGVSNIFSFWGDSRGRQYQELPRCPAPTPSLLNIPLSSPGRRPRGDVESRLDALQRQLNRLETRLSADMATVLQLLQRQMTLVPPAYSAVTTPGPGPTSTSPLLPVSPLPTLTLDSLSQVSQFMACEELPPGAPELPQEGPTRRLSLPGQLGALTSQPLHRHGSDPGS

The assay concerns the target human ether-à-go-go-related gene (hERG) potassium channel (human, UniProt Q12809). The experiment in a line: primary screen, population patch clamp on CHO cells stably expressing hERG.
As to `COCCSc1ccccc1C(=O)N1CCc2ccccc2C1`, the “hERG current change (%, negative = inhibition) at 1uM” value stood at 14.1%. Next, `O=C(COC(=O)C1(c2ccc(Cl)cc2)CCCC1)NCc1ccco1`: 2.67%; `Cc1occc1-c1nnc(SCC(=O)N2CCN(c3ccccc3)CC2)n1C`: 0.27%; `O=C(Nc1cc(S(=O)(=O)N2CCCCC2)ccc1Cl)c1ccncc1`: -20.8%.

Take `COc1ccc(Cl)cc1NC(=O)CN(C)C(=O)c1ccc(N2CCCCC2)c([N+](=O)[O-])c1`: the “hERG current change (%, negative = inhibition) at 1uM” value is listed as 25%. Take `COC(=O)CCCC(=O)N1CCCC(CCC(=O)NCc2ccc(F)c(F)c2)C1` (stereo not shown): the “hERG current change (%, negative = inhibition) at 1uM” value is 7.52%. In the case of `COC(=O)c1ccccc1N=Nc1c(N)[nH][nH]c1=O`, the “hERG current change (%, negative = inhibition) at 1uM” value amounted to 12.4%. As for `CCC(C)NC(=O)CS(=O)(=O)Cc1nc(-c2cccc(OC)c2)oc1C` (stereo not shown), the “hERG current change (%, negative = inhibition) at 1uM” value turned out to be 5.4%. Next, `CCc1nc(Nc2ccccc2F)c2oc3ccccc3c2n1.Cl`: 13.2%. Turning to `Fc1ccc(Oc2ccc3nnc(C(F)(F)F)n3n2)cc1`, the “hERG current change (%, negative = inhibition) at 1uM” value was 12.9%. In the case of `O=C(Nc1ccccc1O)c1ccccc1O` it was -4%. For the compound `Cc1cc2[nH]c3c(c[n+](C)c4ccccc34)c2cc1C.[I-]`, the “hERG current change (%, negative = inhibition) at 1uM” value is listed as -75.9%.

In the case of `COc1ccc([C@@H]2[C@@H]3C(=O)N(C(C)(C)C)C(=O)[C@@H]3[C@]3(Cc4ccccc4)C(=O)N(c4ccc(C(F)(F)F)cc4)C(=O)N23)cc1`, the “hERG current change (%, negative = inhibition) at 1uM” value is listed as 2.89%. As for `CC(C)(C)NC(=S)Nc1ccc(Br)cc1`, the “hERG current change (%, negative = inhibition) at 1uM” value is -2.9%. Next, `O=C(Nc1ccc2oc(-c3ccccc3F)nc2c1)c1ncn[nH]1`: 10.9%; `O=C(CCN1CCN(c2ccc(F)cc2)CC1)Nc1ccccc1F`: -9.21%. In the case of `O=S(=O)(Nc1ccc(C(F)(F)F)cc1)c1cccs1`, the “hERG current change (%, negative = inhibition) at 1uM” value is listed as 6.46%.

Turning to `CN(CCC#N)C(=O)COC(=O)c1cc(Cl)cc(Cl)c1N`, the “hERG current change (%, negative = inhibition) at 1uM” value is reported as 8.79%.

For `C[C@H](NC(=O)c1nc[nH]c1C(=O)N[C@@H](CCCCNC(=O)OC(C)(C)C)C(=O)OC(C)(C)C)c1ccccc1`, the “hERG current change (%, negative = inhibition) at 1uM” value was 19.1%. In the case of `N=C1/C(=C/c2ccco2)C(=O)N=C2SC(CC(=O)N3CCCC3)=NN12` it was 17.9%; in that of `COc1ccc(OC)c(N(CC(=O)N2CCN(c3cc(Cl)ccc3C)CC2)S(C)(=O)=O)c1`, 6.79%; in that of `COc1ccc2cc3cc(C(=O)NCCCN4CCC(C)CC4)oc3nc2c1`, -9.03%.

On to `COCCNC(=O)C(c1ccco1)N(Cc1ccc(OC)cc1)C(=O)Cn1nnc2ccccc21` (stereo not shown), for which the “hERG current change (%, negative = inhibition) at 1uM” value is given as -1.07%.

`Cc1ccc(S(=O)(=O)N[C@@H](C)C(=O)OCC(=O)N2c3ccccc3NC(=O)C2(C)C)cc1`: the “hERG current change (%, negative = inhibition) at 1uM” value turned out to be 3.1%. As for `CCOC(=O)N1CCN(c2cc(=O)n(-c3ccc(Br)cc3)c(=O)[nH]2)CC1`, the “hERG current change (%, negative = inhibition) at 1uM” value was 13.5%.

For the compound `CC(C)=CC(=O)OCC(=O)Nc1ccccc1Cl`, the “hERG current change (%, negative = inhibition) at 1uM” value came out at 17.3%.

On to `Cc1cc(C)c(S(=O)(=O)NCCCn2ccnc2)c(C)c1`, for which the “hERG current change (%, negative = inhibition) at 1uM” value amounted to 3.15%. `O=c1c2cn[nH]c2[nH]c(=S)n1-c1ccccc1Cl`: the “hERG current change (%, negative = inhibition) at 1uM” value stood at 16.4%. In the case of `COc1cc(C2Nc3ccccc3NC3=C2C(=O)CC(c2ccc(OC)c(OC)c2)C3)ccc1O` (stereo not shown), the “hERG current change (%, negative = inhibition) at 1uM” value turned out to be 11.1%. In the case of `O=C(COc1ccc(Br)cc1)N1CCN(c2ccccc2)CC1` it was -7.08%; in that of `CC(C)(C)NC(=O)c1nc2nc(-c3ccccc3)cc(C(F)(F)F)n2n1`, 12.3%. With `N#Cc1c(-c2ccncc2)c2c([nH]c1=S)CCCC2`, the “hERG current change (%, negative = inhibition) at 1uM” value worked out at 11.6%. In the case of `CN(C)c1ccnc(-n2cccc2/C=N/OCc2cccc(F)c2)c1C#N` it was 10.6%; in that of `C=CCN(c1ccc(C(=O)Nc2cccc(C)c2)cc1)S(C)(=O)=O`, 0.258%; in that of `CN(CC(=O)NNC(=O)CNC(=O)c1cccs1)S(=O)(=O)c1ccc(Cl)cc1`, 1.55%. Consider `S=c1[nH]nc(-c2cccc(Br)c2)o1`, for which the “hERG current change (%, negative = inhibition) at 1uM” value was determined as 6.69%. Next, `O=C(NNc1c(Cl)cccc1Cl)c1sccc1Cl`: 10.2%. In the case of `CN1C(=O)NC(c2cccc([N+](=O)[O-])c2)C2=C1CCCC2=O` (stereo not shown) it was 11.5%.

`Cc1onc(-c2ccccc2Cl)c1C(=O)NNC(=O)c1ccccc1F`: the “hERG current change (%, negative = inhibition) at 1uM” value came to 14.5%. Next, `CCOC(=O)C(C)N1C(=O)S/C(=C/c2ccc3c(c2)n(C)c(=O)n3C)C1=O` (stereo not shown): -1.73%; `CN1CCN(C(=O)O[C@H]2c3nccnc3C(=O)N2c2ccc(Cl)cn2)CC1`: 15%. Turning to `CCc1nn(CC(=O)NCCCN2CCN(C)CC2)c(=O)c2cc3sccc3n12`, the “hERG current change (%, negative = inhibition) at 1uM” value is 5.53%. As to `O=C(Cn1cc([N+](=O)[O-])nc1[N+](=O)[O-])N1CCN(c2ccccc2)CC1`, the “hERG current change (%, negative = inhibition) at 1uM” value is reported as 9.49%.

`CCc1ccc2nc(N3CCN(C(=O)C(C)(C)C)CC3)sc2c1`: the “hERG current change (%, negative = inhibition) at 1uM” value was determined as 10.5%. On to `Cc1ccc(SCC(=O)Nc2cccc(S(=O)(=O)N3CCOCC3)c2)cc1C`, for which the “hERG current change (%, negative = inhibition) at 1uM” value stood at 9.2%. With `Cc1ccc(S(=O)(=O)Nc2ccc(S(=O)(=O)N3CCOCC3)cc2)cc1[N+](=O)[O-]`, the “hERG current change (%, negative = inhibition) at 1uM” value was found to be 9.87%. In the case of `CCOc1ccc(NCCC(=O)c2ccc3c(c2)OCO3)cc1` it was 1.15%; in that of `COc1ccc(C(=O)NC(=S)Nc2ccc(CN3CCOCC3)cc2)cc1Cl`, 11%; in that of `O=C(NCCc1ccc(F)cc1)C1CCN(C(=O)Nc2ccccc2)CC1`, 6.81%. Regarding `Nc1nonc1-n1nncc1-c1ccccc1`, the “hERG current change (%, negative = inhibition) at 1uM” value is 6.01%. Take `COc1ccccc1NC(=O)N1CCN(c2cccc(C(F)(F)F)c2)CC1`: the “hERG current change (%, negative = inhibition) at 1uM” value was determined as 5.08%. On to `CN1C=CC2=C(C#N)C(N)C(C#N)(C#N)[C@H](c3ccccc3)[C@H]2C1` (stereo partly shown), for which the “hERG current change (%, negative = inhibition) at 1uM” value was 1.27%. On to `COc1ccc2[nH]c(C(=O)N/N=C/c3ccc(OC)c(O)c3)cc2c1`, for which the “hERG current change (%, negative = inhibition) at 1uM” value is on record as 12%. Regarding `CNc1nc2cc([N+](=O)[O-])c([N+](=O)[O-])cc2nc1NC`, the “hERG current change (%, negative = inhibition) at 1uM” value is listed as -3.16%. Turning to `C=C(C)CC1N(c2cccc(OC)c2)C(=O)[C@@H]2C(C(=O)O)[C@H]3C=C[C@@]12O3` (stereo partly shown), the “hERG current change (%, negative = inhibition) at 1uM” value was 13.5%. With `COC(=O)c1ccc(C)c(NC(=O)CCc2ccc(OC)c(OC)c2)c1`, the “hERG current change (%, negative = inhibition) at 1uM” value came to 14.2%.

As for `c1ccc2c3n(nc2c1)CCCO3`, the “hERG current change (%, negative = inhibition) at 1uM” value was 13%.

Consider `O=C(COC(=O)C1(c2ccccc2F)CCCC1)Nc1ncc(C(F)(F)F)cc1Cl`, for which the “hERG current change (%, negative = inhibition) at 1uM” value amounted to 6.03%. On to `O=C1CCCC(O)=C1N=Nc1ccc(Cl)c(Cl)c1`, for which the “hERG current change (%, negative = inhibition) at 1uM” value amounted to 15.5%. With `COc1ccc(-c2oc3ccc(-c4ccc(OC)nc4)cc3c2C#CC2(O)CCCCC2)cc1`, the “hERG current change (%, negative = inhibition) at 1uM” value is -14.8%. In the case of `CCN(CC)c1ccc(/C=N/NC(=S)NCc2ccccc2)c(O)c1` it was 6.11%; in that of `CN(C)c1nnnn1Cc1ccccc1`, 14.2%; in that of `Cc1ccc2nc(-c3ccncc3)cc(C(=O)N3CCC4(CC3)OCCO4)c2c1`, 1.27%. On to `CCc1cc(=O)oc2cc(OCC(=O)NCCCN3CCCC3=O)c(Cl)cc12`, for which the “hERG current change (%, negative = inhibition) at 1uM” value was 17.5%. In the case of `Cc1ccc(C)c(NC(=O)CN(C)C(=O)c2ccc(-n3cncn3)c([N+](=O)[O-])c2)c1` it was -2.6%; in that of `Cn1c(SC2CCCCC2=O)nnc1-c1ccccc1F` (stereo not shown), 15.5%; in that of `NC(=O)C1CCN(C(=O)c2ccc(-c3ccccc3)cc2)CC1`, 8.47%.

In the case of `Nc1nc2ccccc2n1CCOc1ccccc1Cl`, the “hERG current change (%, negative = inhibition) at 1uM” value is listed as -0.285%. Next, `O=C(CSc1ccc(F)cc1)NC12CC3CC(CC(C3)C1)C2`: 8.16%. As to `CC(C)c1ccc(NC(=O)CCNC(=O)N2CC(=O)Nc3ccccc32)cc1`, the “hERG current change (%, negative = inhibition) at 1uM” value was determined as 13.3%.

As for `C/C=C\C(=O)Nc1cccc(C2=NOC3(C2)C[C@H](C(N)=O)N(C(=O)/C=C/CC)C3)c1` (stereo partly shown), the “hERG current change (%, negative = inhibition) at 1uM” value amounted to 12.7%. As to `O=C(c1ccncc1)N1N=C(C2CC2)CC1(O)C(F)(F)F` (stereo not shown), the “hERG current change (%, negative = inhibition) at 1uM” value is 7.9%.

For `Cc1cccnc1NC(=O)c1ccc(OCC2CCCO2)cc1` (stereo not shown), the “hERG current change (%, negative = inhibition) at 1uM” value came out at 12.4%. In the case of `CCCNC(=O)NC(C)C12CC3CC(CC(C3)C1)C2` (stereo not shown) it was 9.76%; in that of `COc1ccc(Cc2nnc(SCC(=O)N3CCCCC3)o2)cc1`, 1.06%; in that of `COc1ccc(-c2c(C)nn3c(C)cc(C)nc23)cc1`, 13.1%. Regarding `CCCNC(=O)c1ccc(N2CCC3(CC2)CC(c2ccccc2)=NO3)c(NC(=O)c2ccc(Br)cc2)c1`, the “hERG current change (%, negative = inhibition) at 1uM” value came out at 6.67%. Next, `Cc1nn(-c2ccccc2)c(N)c1N=O`: 12.8%; `c1ccc2nc(N3CCN(Cc4ccc5c(c4)OCO5)CC3)cnc2c1`: 6.24%. Consider `Nc1nc(SCC(=O)Nc2ccc(S(N)(=O)=O)cc2)n[nH]1`, for which the “hERG current change (%, negative = inhibition) at 1uM” value is -1.22%. In the case of `Cc1nc2scc(C)n2c(=O)c1S(=O)(=O)Nc1ccc(F)cc1`, the “hERG current change (%, negative = inhibition) at 1uM” value was determined as 10.4%.

As for `Cc1ccc(S(=O)(=O)CCc2nc3ccccc3n2CCC#N)cc1`, the “hERG current change (%, negative = inhibition) at 1uM” value is 2.55%. In the case of `CN1C(=O)C(C)(C)c2cc(S(=O)(=O)N3CCN(c4ccccc4F)CC3)ccc21` it was 1.55%. Consider `Cc1ccc(NNC(=O)c2c(C)noc2C)cc1Cl`, for which the “hERG current change (%, negative = inhibition) at 1uM” value came out at 11.9%. With `CC(C)(C)OC(=O)N1CCC(Cc2cc(-c3cccc(Br)c3)no2)(C(=O)O)CC1`, the “hERG current change (%, negative = inhibition) at 1uM” value is reported as -14%.

In the case of `COc1cc(C)nc(N(C)C(C)=O)n1`, the “hERG current change (%, negative = inhibition) at 1uM” value was 9.31%. Regarding `Cc1ccc(C)c(-n2c(=O)c(C#N)cc3c(=O)n4ccccc4nc32)c1`, the “hERG current change (%, negative = inhibition) at 1uM” value is listed as 21.3%. Take `O=C(CSc1ccccc1F)Nc1ccc(N2CCOCC2)cc1`: the “hERG current change (%, negative = inhibition) at 1uM” value is 12.6%.
